Data taken from the RNAGym collection of RNA variant scans (doi:10.7554/elife.90254).
The source gives no read counts; variants with many changes may rest on few reads.

B1: LINE1-mini (parent)
chain: GGCAGAGCUCAACACAGCGUGGCAAAGUGGCUGUGGCUAGACUGCC

Variants of: B1
Experiment: self-cleavage, relative activity (ratio to wild type); higher = more cleavage; in vitro, sequencing; the parent is a self-cleaving ribozyme

Question: With GGCAGUGCUCAACACAGCGUGGCAAAGUGGCUGUGGCUAGACGGAC as the variant, how does the self-cleavage read?
Answer: 0.06

Question: For GGCAGUGCUCAACACAGCGUGUCAAAGUGGCUGUCCUUACACUGCC, which self-cleavage is on record?
Answer: 0.08

Question: Which self-cleavage does the source give for GGCAGUGCUCAACACAGCGUGGCAAAAUGGCUGUGGCUAGACUGCU here?
Answer: 0.42

Question: For GGCAGUGCUCAACACAGCGUGGCAAACUGGCUGUGGCAAGGCUGCC, which self-cleavage is on record?
Answer: 0.3

Question: For GGCAGUGCUCAACACAGCGUGGCAAAUUCGCUGUGGCUAGACUGCC, which self-cleavage is on record?
Answer: 0.25

Question: With GGCAGUGCUCAACACAGCGUGUCAAAGUGGCUGUGGCUAGACGGCC as the variant, how does the self-cleavage read?
Answer: 0.04

Question: With GGCAGAACUCCACACAAAGGGGCAAAGUGGCUGUGGCUAGACUGCC as the variant, how does the self-cleavage read?
Answer: 0.01

Question: With GGCAGUGCUCAACACAGCGUGGCAAAGUGGCGGUGGCUGGACUGCC as the variant, how does the self-cleavage read?
Answer: 0.11

Question: With GGCAGUGCUCAACACAGCGUGGCAAAGUGGCUAUGGCCAGACUGCC as the variant, how does the self-cleavage read?
Answer: 0.16

Question: For GGCAGUGCUCAACACAGCGUGGCAAAGUGGCUGCGGCUAGACUGGC, which self-cleavage is on record?
Answer: 0.11

Question: With GGCAGAACUCGACACAGCGUGGCAAAGUGGCUGUGGCUAGAAUGCC as the variant, how does the self-cleavage read?
Answer: 0.01

Question: Which self-cleavage does the source give for GGCAGAACUCGACACAGCGUGGCGAAGUGGCUGUGGCUAGACUGCC here?
Answer: 0.01

Question: With GGCAGUGCUCAACACAGCGUGGCAAAUUGGCUGUGGAUAGACUGCC as the variant, how does the self-cleavage read?
Answer: 0.13

Question: With GGCAGUGCUCAACACAGCGUGGCAAAGUGGCGGCGGCUAGCCUGCU as the variant, how does the self-cleavage read?
Answer: 0.06

Question: With GGCAGUGCUCAACACAGCGUGGCAAAGUUGCUGUGGCUAGACUGCG as the variant, how does the self-cleavage read?
Answer: 0.81

Question: Which self-cleavage does the source give for GGCAGUGCUCAACACAGCGUGGCAAAGUGGCAGUGGAUAGACUGCC here?
Answer: 0.02

Question: With GGCAGUGCUCAACACAGCGUGGCAAAGUGGCUAUGGCUGGACUUCC as the variant, how does the self-cleavage read?
Answer: 0.05

Question: With GGCAGUGCUCAACACAGCGUGGCAAAGUGGCAGUGGCUAGAAUGCC as the variant, how does the self-cleavage read?
Answer: 0.01

Question: For GGCAGUGCUCAACACAGCGUGCCAACCUGGCUGUGGGUAGACUGCC, which self-cleavage is on record?
Answer: 0.02

Question: With GGCAGUGCACAACACAGCGUGGCAAAAUGGCUGUGGCUAGACUGCC as the variant, how does the self-cleavage read?
Answer: 0.27

Question: For GGCAGUGCUCAACACAGCCUGGCAAGGUGGCUGUGGCUAGAGUGCC, which self-cleavage is on record?
Answer: 0.01

Question: For GGCAGUGCUCAACACAGCGUGGCAAAGUGGCUAUGGCUAGCCUGCC, which self-cleavage is on record?
Answer: 0.06

Question: Which self-cleavage does the source give for GGCAGAACUCCACACAGCGUGGCAAAGUGGCUGUGAAUAGACUGCC here?
Answer: 0.07

Question: With GGCAGAACUCUAUACAGCGUGGCAAAGUGGCUGUGGCUAGGCUGCC as the variant, how does the self-cleavage read?
Answer: 0.12

Question: With GGCAGAACUCUACACAGCGUGGCAAAGUGGCUGUGGCUAGACUCCC as the variant, how does the self-cleavage read?
Answer: 0

Question: For GGCAGAACUCUACACAGCGUGUCAAAGCGGCUGUGGCUAGUCUACC, which self-cleavage is on record?
Answer: 0.02

Question: With GGCAGUGCUCAACACAGCGUGGCAAAGUGGCUGAGGCUAGAAUUCC as the variant, how does the self-cleavage read?
Answer: 0.06

Question: Which self-cleavage does the source give for GGCAGUGCUCAACACAGCGUGGCAAAGUGUCGGUGGCUAGACUGCA here?
Answer: 0.04

Question: Which self-cleavage does the source give for GGCAGUGCUCAACACAGCCUGGCAAAGUGGCUGUUGCUAGACUGCC here?
Answer: 0.63

Question: For GGCAGUGCUCAACACAGCGCGGCAAAGUGGCUGUGACUAGACUGCC, which self-cleavage is on record?
Answer: 0.05

Question: For GGCAGUGCUCAACACAGCGUGGCAAAGUGGCCGUUGCUAGACUGCC, which self-cleavage is on record?
Answer: 0.05

Question: For GGCAGUGCUCAACACAGCGCGGCAAAGUGUCUGUGGCUAGACUGCC, which self-cleavage is on record?
Answer: 0.12

Question: For GGCAGUGCUCAACACAGCGUGGCAAAGUGACUGUGGCUAGACUGUC, which self-cleavage is on record?
Answer: 0.79

Question: Which self-cleavage does the source give for GGCAGUGCUCAACACAGCGGGGCAAAAUGGCUGUGGCUAGACUGCC here?
Answer: 0.26

Question: With GGCAGUGCUCAACACAGCAUGGCAAAGUGGCUGUGGCUAAACUGCC as the variant, how does the self-cleavage read?
Answer: 0.08

Question: For GGCAGUGCUCAACACAGCGUGGCAAAGUGGCUGUGGCUAGACUUCG, which self-cleavage is on record?
Answer: 0.33

Question: With GGCAGUGCUCAACACAGCGGGGCAAAGUGGCUGUGGCUAGACUACC as the variant, how does the self-cleavage read?
Answer: 0.19

Question: For GGCAGUGCUCAACACAGCGUGGCAAAGUGGCUGUGGCAGGACUGCC, which self-cleavage is on record?
Answer: 0.02

Question: With GGCAGUGCUCAACACAGCGUCGCAAAGUGGCUGUGGCUAGACUGCA as the variant, how does the self-cleavage read?
Answer: 0.59

Question: With GGCAGUGCUCAACACAGCGGGGCAAAGUUGCUGUGGCUAGACUGCC as the variant, how does the self-cleavage read?
Answer: 0.2

Question: For GGCAGUGCUCAACACAGCGUGACGAAGUGGCUGUGGCUAGACUGCC, which self-cleavage is on record?
Answer: 0.4

Question: With GGCAGUGCUCAACACAGCGCGGCCAAGUGGCUGAGGCCAGACUGCC as the variant, how does the self-cleavage read?
Answer: 0.02

Question: For GGCAGUGCUCAACACAGCGUGGCAAAGUGGCUGUCCCUAGACUGCC, which self-cleavage is on record?
Answer: 0.05

Question: For GGCAGUGCGCAACACAGGGUGACAAAGUGGCCGUGGCUAGACUGCC, which self-cleavage is on record?
Answer: 0.09

Question: With GGCAGUGCUCAACACAGCGUGCCAAAGUGGAUGUGGCUAGACUGCC as the variant, how does the self-cleavage read?
Answer: 0.14

Question: For GGCAGUGCUCAACACAGCGUGGCAAAGUUGCUAUGGCGAGACUGCC, which self-cleavage is on record?
Answer: 0.01

Question: Which self-cleavage does the source give for GGCAGUGCUCAACACAGCGUGGCAAAGUGGCGGUGGCCAGACUGCC here?
Answer: 0.25

Question: With GGCAGUGCAGAACACAGCGUGGUAAAGUGGUUGUGGCUAGACUGCC as the variant, how does the self-cleavage read?
Answer: 0.03

Question: Which self-cleavage does the source give for GGCAGUGCUCAACACAGCGAGGCAAAGAGGCUGUGGCUGGACUGCC here?
Answer: 0.06

Question: Which self-cleavage does the source give for GGCAGAACUCCACACAGAGUGGCAAAGUGGCUGUGGCUACACUGCC here?
Answer: 0.01

Question: For GGCAGUGCUCAACACAGCGUGGCAAAGUGGCAGUGGCUAGCCUGCC, which self-cleavage is on record?
Answer: 0.03

Question: With GGCAGUGCUCAACACAGCGUUGCAAAGUGGCUGUGGGUAGACUGCC as the variant, how does the self-cleavage read?
Answer: 0

Question: For GGCAGUGCUCAACACAGCGUGCCAAAGUGGCUGUGCCUAGACUGCC, which self-cleavage is on record?
Answer: 0.3

Question: Which self-cleavage does the source give for GGCAGUGCUCAACACAGCGUGUCAAAGUGGCUGUGGACAGACUGCC here?
Answer: 0.05

Question: With GGCAGUGCUCAACACAGCGUGGCAAAGUGGCAGUGGCUAUACUGCC as the variant, how does the self-cleavage read?
Answer: 0.16

Question: Which self-cleavage does the source give for GGCAGAACUCCACACAGCGUGGCAAAGUGGCUGUGGCUAAACUGCC here?
Answer: 0.06
